# In paper PMC4336329 (PLoS ONE, 2015):
# Screen size: about 310,000 compounds; about 2,200 (0.71%) showed an effect of 50% or more. Effects have a minus sign here. This is one part of the list.
# Target: human ether-à-go-go-related gene (hERG) potassium channel (human, UniProt Q12809)
# Assay: primary screen, population patch clamp on CHO cells stably expressing hERG
# Sequence of human ether-à-go-go-related gene (hERG) potassium channel (Q12809 whole entry, looked up): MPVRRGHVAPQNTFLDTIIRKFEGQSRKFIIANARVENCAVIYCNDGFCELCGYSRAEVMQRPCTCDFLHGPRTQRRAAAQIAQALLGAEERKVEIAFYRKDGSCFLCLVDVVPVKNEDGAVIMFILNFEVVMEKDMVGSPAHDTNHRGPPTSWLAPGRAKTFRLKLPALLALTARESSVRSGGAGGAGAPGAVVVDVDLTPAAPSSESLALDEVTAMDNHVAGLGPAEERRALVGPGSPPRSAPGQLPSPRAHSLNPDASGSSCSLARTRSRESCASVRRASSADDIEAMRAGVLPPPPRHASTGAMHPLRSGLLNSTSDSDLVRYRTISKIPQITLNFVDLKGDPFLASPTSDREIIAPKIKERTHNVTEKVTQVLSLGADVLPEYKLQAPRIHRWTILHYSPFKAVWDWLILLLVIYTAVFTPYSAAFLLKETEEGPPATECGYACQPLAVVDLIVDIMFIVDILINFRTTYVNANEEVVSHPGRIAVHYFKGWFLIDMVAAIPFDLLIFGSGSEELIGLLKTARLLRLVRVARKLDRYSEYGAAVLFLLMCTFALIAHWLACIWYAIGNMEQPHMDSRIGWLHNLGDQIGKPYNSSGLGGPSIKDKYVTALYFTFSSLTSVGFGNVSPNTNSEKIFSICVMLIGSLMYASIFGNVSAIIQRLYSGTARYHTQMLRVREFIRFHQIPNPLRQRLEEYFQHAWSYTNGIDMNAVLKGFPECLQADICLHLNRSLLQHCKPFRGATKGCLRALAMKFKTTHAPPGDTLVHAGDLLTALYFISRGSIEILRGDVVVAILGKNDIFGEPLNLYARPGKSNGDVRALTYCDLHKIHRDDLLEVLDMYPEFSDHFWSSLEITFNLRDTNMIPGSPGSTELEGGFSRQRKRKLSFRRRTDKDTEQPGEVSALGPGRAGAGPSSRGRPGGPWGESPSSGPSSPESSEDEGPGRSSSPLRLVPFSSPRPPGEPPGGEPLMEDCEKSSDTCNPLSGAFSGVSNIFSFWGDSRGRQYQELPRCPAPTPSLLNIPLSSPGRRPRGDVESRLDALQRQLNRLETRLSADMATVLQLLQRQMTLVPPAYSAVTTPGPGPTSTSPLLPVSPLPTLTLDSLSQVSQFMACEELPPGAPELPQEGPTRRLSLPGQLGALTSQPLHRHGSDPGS
row,Compound,"hERG current change (%, negative = inhibition) at 1uM"
1,O=C(CC1C(=O)NCCN1Cc1cccc(Oc2ccccc2)c1)NCCn1cccn1 (centres unmarked),-2.88%
2,COc1ccc(CC(=O)Nc2cccc(C(=O)NN3C(=O)c4ccccc4C3=O)c2C)cc1,10.2%
3,CCCC(=O)N(CCN1CCOCC1)c1nc2c(C)cccc2s1.Cl,6.75%
4,COc1cc(O)c(C(CC(=O)N2CCCC(C)C2)c2ccc3c(c2)OCO3)c(OC)c1 (centres unmarked),14.5%
5,COc1cc(/C=N/Nc2ccc(C(F)(F)F)cn2)ccc1O,16.8%
6,CCC(NC(=O)Nc1nnc(C(F)(F)F)s1)(C(F)(F)F)C(F)(F)F,4.85%
7,C=CCC1C=CCC(CC=C)N1C(=O)c1ccccc1[N+](=O)[O-] (centres unmarked),8.25%
8,COc1ccc2c(c1)oc(=O)c1cc(OC)ccc12,15.7%
9,O=C(COc1ccc(C(=S)N2CCOCC2)cc1)N1CCOCC1,11.8%
10,CC1CCN(C(C(=O)O)c2ccccc2)CC1.Cl (centres unmarked),15.1%
11,CC(C)(C)C1(C)OC(C(=O)NC2CCCCC2)C(C(=O)NC2CCCCC2)O1 (centres unmarked),-0.895%
12,O=C(NCc1ccccc1)N1CCC(CO)(Cc2cccc(F)c2)CC1,14.3%
13,O=C(Nc1ccc2c(c1)OCO2)C1CCN(C(=O)CSc2ncnc3ccccc23)CC1,-5.72%
14,Cc1cccc(C)c1NC(=O)N1CCN(c2nc3ccccc3s2)CC1,9.9%
15,O=C(NCc1ccc(F)cc1)c1cc(C(=O)C2CC2)c[nH]1,4.05%
16,N/C(=N/[N+](=O)[O-])N1CCN(C(=O)c2ccc(Cl)cc2)CC1,5.02%
17,COc1ccccc1NC(=O)CC1C(=O)NCCN1C(=O)Nc1ccc(Cl)c(Cl)c1 (centres unmarked),9.53%
18,O=C(OCc1c(Cl)nc2sccn12)c1cc2c(s1)CCCC2,9.38%
19,Cc1ccc(C)c(S(=O)(=O)Nc2ccccc2C(=O)Nc2cc(C)on2)c1,10%
20,CCOC(=O)Cc1cc(=O)[nH]c(Nc2nc3ccccc3o2)n1,4.8%
21,CCC(C)NC(=O)c1cn(CCOC)c(=O)c2c1c1ccccc1n2C (centres unmarked),21.6%
22,CCOC(=O)c1cnc(SCc2nc(N)nc(Nc3ccc(F)cc3)n2)nc1N,0.967%
23,Cc1ccc(/C=C(/C#N)C(=O)NC(C)c2ccccc2)o1 (centres unmarked),9.29%

row,Compound,"hERG current change (%, negative = inhibition) at 1uM"
1,Cc1ccc(NC(NC(=O)c2ccccc2[N+](=O)[O-])C(Cl)(Cl)Cl)cc1 (centres unmarked),2.88%
2,Cc1c(C(c2ccc(F)cc2)c2c(O)c3ccccc3oc2=O)c(=O)n(-c2ccccc2)n1C (centres unmarked),-3.56%
3,COc1ccc(N2C(N)=C(C#N)C(c3cccnc3)C3=C2CC(C)(C)CC3=O)cc1 (centres unmarked),11.6%
4,Cc1ccc(-c2nnc(SCc3ccc(C#N)cc3)n2Cc2ccco2)cc1,-19.2%
5,Cc1cccc(OCC(=O)Nc2ccc(NC(=O)c3ccco3)c(C)c2)c1,1.81%
6,Cc1cc(C)c(NC(=O)CSCc2c(C)noc2C)c(C)c1,17.1%
7,CCOC(=O)N1CCN(C(=O)c2ccc(Cl)c(NC(=O)c3cccs3)c2)CC1,-1.68%
8,COc1ccc(-c2csc3ncnc(N4CCN(CCO)CC4)c23)cc1,12.7%
9,Cl.O=C1C2CCCC1C(N1CCCCC1)CC2 (centres unmarked),6.91%
10,O=C(Nc1ccc(F)cc1F)c1c(C(F)(F)F)ccnc1Oc1cccc(C(F)(F)F)c1,12%
11,COc1ccccc1/C=C/C(=C1/C(=O)N(c2ccccc2)N=C1C)c1ccc(C)cc1,-1.9%
12,COc1ccc(NC(=O)C2CCCNC2)cc1OCC(C)C (centres unmarked),12%
13,COC(=O)c1ccc2[nH]c(CO)c(-c3ccccc3)c2c1,13.2%
14,NS(=O)(=O)c1ccc(NC(=O)c2ccc(S(=O)(=O)N3CCc4ccccc43)cc2)cc1,4.47%
15,COc1cnn(-c2ccc(Br)cc2)c(=O)c1SCc1ccccc1,-14%
16,Cc1cc(N2C(=O)C(=O)/C(=C(/O)c3ccccc3)C2c2cccs2)no1 (centres unmarked),13.1%
17,CN(CCCNC(=O)CSc1cc(=O)n(C)c2ccc(Cl)cc12)Cc1ccccc1,-16.3%
18,O=C1CC2(CCN(C(=O)c3c(F)cccc3F)CC2)Oc2ccccc21,-3.63%
19,CC(C)NC(=O)c1ccccc1NC(=O)C1CC(=O)N(C(C)C)C1 (centres unmarked),29.3%
20,CC1(C)C(c2cccs2)=[N+]([O-])C2(CCCCC/C2=N\NC(N)=O)N1O (centres unmarked),7.92%
21,Cn1c(=O)cc(OCC(=O)NC2CCCCC2)c2ccccc21,8.77%
22,Fc1ccc(-n2nnc(-c3nccs3)n2)cc1,7.22%
23,COc1cccc(N2CCN(Cc3cccnc3)CC2)c1,0.44%

row,Compound,"hERG current change (%, negative = inhibition) at 1uM"
1,CCOC(=O)c1c(NC(=O)CCc2ccc(CC)o2)sc(C)c1C,15.6%
2,Clc1ccccc1Nc1ncnc2c1nnn2Cc1ccccc1,5.79%
3,CSC1=NC(C)(C)C=C(/C=C/c2c(Cl)cccc2Cl)N1,10.9%
4,CCCn1c(SCC(=O)NC2CCCCC2)nnc1-c1ccccn1,-2.51%
5,O=C(O)c1cccc(CSc2nc(-c3ccc(Cl)cc3)cc(C(F)(F)F)n2)c1,-2.91%
6,CC(=O)Nc1ccc(S(=O)(=O)N2CCN(C3CCCCCCC3)CC2)cc1.O=C(O)C(=O)O,10.3%
7,CCn1c(SCC(=O)Nc2ccc(C)cc2)nc2nc3c(cc2c1=O)COC(C)(C)C3,-76.5%
8,CN1CCc2cc3c(c4c2C1Cc1ccccc1-4)OCO3 (centres unmarked),2.95%
9,O=C(NCc1ccccn1)C1CCN(S(=O)(=O)c2cc(Cl)ccc2Cl)CC1,8.99%
10,O=C(CCC(=O)N1CCOc2ccccc21)NCCCN1CCOCC1,13.3%
11,COc1cc2c(cc1OC)C(C)N(C(=O)c1c(-c3ccccc3)noc1C)CC2 (centres unmarked),14.1%
12,COc1ccc([C@@H]2CC(=O)c3c(O)cc(O)cc3O2)cc1O,8.29%
13,Cc1cc(C)c(NS(=O)(=O)c2ccc3c(c2)NC(=O)CC(=O)N3)c(C)c1,11.7%
14,CSCCC(=O)N(C)CC1CCN(CCc2cccc(C(F)(F)F)c2)CC1,-27.3%
15,COc1ccc2[nH]cc(C(=O)CN3CCCCC3)c2c1,9.38%
16,COc1ccc(Br)cc1/C=N/NC(=O)c1ccc(OC)c(OC)c1,12.6%
17,CCC(C)C(=O)Nc1ccc(OC)cc1OC (centres unmarked),14.4%
18,CCOC(=O)COn1c(=O)c(-c2ccc(OCC)cc2)[n+]([O-])c2ccccc21,15.1%
19,CC(=O)c1cccc(NC(=O)CCN2C(=O)C3C4CCC(C4)C3C2=O)c1 (centres unmarked),0.223%
20,CCCCC(=O)O[C@H]1CC[C@H]2[C@@H]3CCc4cc(O)ccc4[C@H]3CC[C@]12C,6.8%
21,COc1ccc(C(=S)N2CCOCC2)cc1OC(=O)c1cc(OC)c(OC)c(OC)c1,14.5%
22,Cc1noc(C)c1COC(=O)c1ccccc1Oc1ccccc1,21.6%
23,C=CCn1c(N)c(C(=O)NCC2CCCO2)c2nc3ccccc3nc21 (centres unmarked),11.5%

row,Compound,"hERG current change (%, negative = inhibition) at 1uM"
1,COc1ccc(-c2nn(-c3ccccc3)cc2C(=O)Nc2nccs2)cc1OC,7.02%
2,Cc1cccc(C)c1OCC(=O)N/N=C/c1cccnc1,4.85%
3,CSc1nc(N)nc(C(C)C)n1,9.8%
4,Cc1[nH]nc(N2CCCCCC2)c1[N+](=O)[O-],16.7%
5,CCN(C(=O)COC(=O)c1cc(=O)[nH]c2ccccc12)C1CCS(=O)(=O)C1 (centres unmarked),12.2%
6,COC(=O)c1ccc(N2CCN(c3ccccc3)CC2)c(N)c1,12.9%
7,CCC(NC(=O)NC1=NCCS1)(C(F)(F)F)C(F)(F)F,6.93%
8,CCOC(=O)C(C)Sc1nc2c(cnn2-c2ccc(C)cc2)c(=O)[nH]1 (centres unmarked),6.98%
9,Cn1nc(C(F)(F)F)c(C(=O)Nc2ccc(F)cc2)c1Cl,13.3%
10,O=C(Nc1ccc(NC(=O)c2cc([N+](=O)[O-])ccc2N2CCOCC2)cc1)c1cccs1,2.89%
11,N#Cc1sc(NCc2cccc(Cl)c2)nc1Cl,4.66%
12,O=C(COc1ccc(Br)cc1Cl)N1CCN(c2ccccn2)CC1,4.01%
13,O=C(NCCC1CCCCN1S(=O)(=O)c1ccccc1)C(=O)Nc1ccccc1F (centres unmarked),11.4%
14,CN(CCC1CCOCC1)Cc1nc(Cc2ccccc2F)no1,11%
15,CCOC(=O)c1nn(-c2cccc(C)c2)cc1C(=O)c1ccccc1,-0.722%
16,Cn1nc(C(=O)OCCN2C(=O)c3ccccc3C2=O)c2ccccc2c1=O,7.29%
17,Cc1cc(C)cc(C(=O)N(c2ccccn2)C(C)c2ccco2)c1 (centres unmarked),12.9%
18,CN(C)N1C(N)=C(C#N)C(c2cccs2)C2=C1CC(C)(C)CC2=O (centres unmarked),8.64%
19,CCn1ncc(/C=C/C(=O)c2ccccc2)c1C,-0.474%
20,CCCCOc1ccc(S(=O)(=O)N2CCN(c3ccc(N4CCN(CC)CC4)nn3)CC2)cc1,15.2%
